Read counts are not given, so values of variants with three or more changes are uncertain.

In the RNAGym collection of RNA variant scans (doi:10.7554/elife.90254) one finds self-cleavage data, which are given here for 56 variants.

To fix the notation:
B1: LINE1-mini (parent)
chain: GGCAGAGCUCAACACAGCGUGGCAAAGUGGCUGUGGCUAGACUGCC

In this data set the parent is B1. The data set can be described thus: self-cleavage, relative activity (ratio to wild type); higher = more cleavage; in vitro, sequencing; the parent is a self-cleaving ribozyme.
In the case of GGCAGAGCUUAACACAGCGUCGCAAUGUGGCUGUGGCUAGUCUGCC [C10U G21C A26U A41U], the self-cleavage is 0.04. Consider GGCAGAGCUUAACACAGCGUGGCAAAGUGGCAGUGGCUAUAUGGAC [C10U U32A G40U C42U U43G C45A], for which the self-cleavage was determined as 0.02. Turning to GGCAGAGCUCCUCGCUGUAUGGUAAAGUGGCUGUGGCUAGACUGCC [A11C A12U A14G A16U C18U G19A C23U], the self-cleavage was determined as 0. In the case of GGCAGAGCUUAACACAGCGUCACAAAGUGGCGGUUGCUUGACUGCC [C10U G21C G22A U32G G35U A39U], the self-cleavage is 0.02. Consider GGCAGAGCUUAACACAGCGUGGCAAAGUGGCUUUGGCUAGAUUGCC [C10U G33U C42U], for which the self-cleavage was 0.04. For GGCAGAGCUUAACACAGCGUGGCAAAGUGGCUGUGGCUACACUGCU [C10U G40C C46U], the self-cleavage turned out to be 0.01.

Turning to GGCAGAGCUUAACACAGCGUGGCAAAGUGGCUGUGGCUACACUGCA [C10U G40C C46A], the self-cleavage is 0.03. As for GGCAGAGCUUAACACAGCGUGGCAAAGUGGCUGUGGCUACACUGCG [C10U G40C C46G], the self-cleavage amounted to 0.03.

Regarding GGCAGAGCUUAACACAGCGUCGCAAAGUGGCUGUGGCUAGACCGCC [C10U G21C U43C], the self-cleavage is 0.15. GGCAGAGCUUAACACAGCGUGGCAAAAUGGCUGUGGCUACAGUGCC [C10U G27A G40C C42G]: the self-cleavage was determined as 0.03. As for GGCAGAGCUUAACACAGCGUGGCAAAAUGGCUGUGGCUAGACCGCC [C10U G27A U43C], the self-cleavage is 0.03. In the case of GGCAGAGCUUAACACAGCGUGGCAAAGAGGCUGUGGCUAGACUUCC [C10U U28A G44U], the self-cleavage was 0.01. With GGCAGAGCUUAACACAGCGGGGCAAAGUGUUUGUGGCUAGACUGCC [C10U U20G G30U C31U], the self-cleavage worked out at 0.11. In the case of GGCAGAGCUUAACACAGCGUGGCAAAGUGGCUGUUGCUAAACUGCC [C10U G35U G40A], the self-cleavage worked out at 0.03.

In the case of GGCAGAGCUUAACACAGCGUCGCAAAGUGACUGUGGCUAGACUGCC [C10U G21C G30A], the self-cleavage came out at 0.28. For GGCAGAGCUUAACACAGCGUGGCAAAGUGGCUGUGGCUAGACAGUC [C10U U43A C45U], the self-cleavage is 0.18. Consider GGCAGAGCUUAACACAGCGUGGCAAAGUGGCUUUGUCUAGACCGCC [C10U G33U G36U U43C], for which the self-cleavage turned out to be 0.05. Take GGCAGAGCUUAACACAGCUUGGAAAAGUGGCUGUGGCUAGUCUGCC [C10U G19U C23A A41U]: the self-cleavage amounted to 0.05.

With GGCAGAGCUUAACACAGCGUGGCAAAGUGGCUGUGGCGAGACUGAC [C10U U38G C45A], the self-cleavage is 0.02.

Consider GGCAGAGCUUAACACAGCGUGGCAAAGCGGCUGUGGCUAGACUUCC [C10U U28C G44U], for which the self-cleavage turned out to be 0.04. The value for GGCAGAGCUUAACACAGCGUAGCAUAGUGGCUGUGGCUAGACAGCC [C10U G21A A25U U43A] was 0.03; that for GGCAGAGCUUAACACAGCGUGGCAAAAUGGCUGUGGCUAGACUACC [C10U G27A G44A] was 0.09; that for GGCAGAGCUCCGCACAGCGUGGCAAAGUGGCUGCCGUUCGACUGCC [A11C A12G U34C G35C C37U A39C] was 0.01. On to GGCAGAGCUUAACACAGCGUUGCAAAGUGGCUUUGGCUAGCUUGCC [C10U G21U G33U A41C C42U], for which the self-cleavage is 0.02.

Consider GGCAGAGCUUAACACAGCGUGGCAAAGUGGCAGUGGCUAGACUGCG [C10U U32A C46G], for which the self-cleavage was 0.1. With GGCAGAGCUUAACACAGCGAGGCAAAGUGUCUGUGGCUCGACUGCC [C10U U20A G30U A39C] the figure was 0.01. As to GGCAGAGCUCCCCACAGGGUGGCAAAGUGGCUGUGGCUAGACUGCC [A11C A12C C18G], the self-cleavage is 0.03. On to GGCAGAGCUUAACACAGCGUGGCAAAAUGGCUGUGCCUAGACUGCG [C10U G27A G36C C46G], for which the self-cleavage amounted to 0.08.

With GGCAGAGCUCCCCACAGCGUGGCAAUGUGGCUGUGGGUAGAAUGCC [A11C A12C A26U C37G C42A], the self-cleavage came to 0.

GGCAGAGCUUAACACAGCGUGCCAAAGUGGCUGUGAGUAGACUGCC [C10U G22C G36A C37G]: the self-cleavage was found to be 0.04. As to GGCAGAGCUUAACACAGCGUGGCAAACUGGCUGUGGCUAGACUACC [C10U G27C G44A], the self-cleavage turned out to be 0.1. Consider GGCAGAGCUCCACCCAGCGUAACAAAGUGGCUGUGGCUAGACUGCG [A11C A14C G21A G22A C46G], for which the self-cleavage is 0.02.

For the variant GGCAGAGCUUAACACAGCGUGGCAAAGUGGCUAUUGCUAGACUGCC [C10U G33A G35U], the self-cleavage is 0.06. The value for GGCAGAGCUUAACACAGCGGGGCAAAGUGGCGGUGGCUAGACUGCC [C10U U20G U32G] was 0.03; that for GGCAGAGCUUAACACAGCGUGGCAAAAUGGCUGUGGCUAGACUGCG [C10U G27A C46G] was 0.06. In the case of GGCAGAGCUUAACACAGCGUGGCAAAGUCCCUGUGGGUAGACUGCC [C10U G29C G30C C37G], the self-cleavage was determined as 0.02. Regarding GGCAGAGCUUAACACAGCGUGGCAAAGUAGCUGUGGAUCGACUGCC [C10U G29A C37A A39C], the self-cleavage is 0.01.

As for GGCAGAGCUUAACACAGCGUGGCAAAGUGGCUGUGACAAGCCUGCC [C10U G36A U38A A41C], the self-cleavage was found to be 0.03. With GGCAGAGCUUAACACAGCUUGGCCAAGCGGCUGUGGCUAGACUGCC [C10U G19U A24C U28C] the figure was 0.22; with GGCAGAGCUUAACACAGCGUGCCAAAGUGGCUGUGGCUGGACUGCC [C10U G22C A39G], 0.06; with GGCAGAGCUUAACACAGCGUGGCAAAGUGGCCGUGGCUAGACUACC [C10U U32C G44A], 0.06. With GGCAGAGCUCCGCAAAGCGUGGCAAAGUGGAUGUGGCUAGACUGCC [A11C A12G C15A C31A], the self-cleavage came out at 0. As for GGCAGAGCUCCCGACAGCGUGGCAAAGUGGGUGUGACUAGACUGGC [A11C A12C C13G C31G G36A C45G], the self-cleavage was found to be 0.

Regarding GGCAGAGCUUAACACAGCGUGGCAAAAUGGUUGAGGCUAGACUGCC [C10U G27A C31U U34A], the self-cleavage was 0.07. With GGCAGAGCUUAACACAGCGUCGCAAAGUGGCUGUUGCUAGACUACC [C10U G21C G35U G44A], the self-cleavage worked out at 0.03. For the variant GGCAGAGCUUAACACAGCGUGGCAAAGUGGCCGUGGCUAGACAGCC [C10U U32C U43A], the self-cleavage is 0.04. Turning to GGCAGAGCUUAACACAGCGUGGCAAAGUGGCUGUGACUAAACUGCC [C10U G36A G40A], the self-cleavage was found to be 0.04. In the case of GGCAGAGCUCCACGCAUCGUGGCAAAGUGGCUGUGGCUAGACUGCC [A11C A14G G17U], the self-cleavage was 0.03. On to GGCAGAGCUUAACACAGCGUGGCAAAGUGGCUCUGGCUGGACUGCC [C10U G33C A39G], for which the self-cleavage came out at 0.02. In the case of GGCAGAGCUCCACCCAGCGUGGCAAAGUGGCUGUGGCUAGACUGCA [A11C A14C C46A], the self-cleavage stood at 0.02. GGCAGAGCUUAACACAGCGUGGCAAAGUCGCUAUGGCUAGACUGCC [C10U G29C G33A]: the self-cleavage is 0.07. GGCAGAGCUUAACACAGCGGGGCAAAGUGGAUGUGGCUAGACUGCC [C10U U20G C31A]: the self-cleavage was determined as 0.02. GGCAGAGCUUAACACAGCGUGGCAAAGUGCCUGUGGAUAGACUGCG [C10U G30C C37A C46G]: the self-cleavage was determined as 0.02. The value for GGCAGAGCUUAACACAGCGUGGCAAAGUGGCUGUGGCGAGACUGCA [C10U U38G C46A] was 0.04; that for GGCAGAGCUUAACACAGCGUAGUAAAGUGGCUGUGGCUACACUGCC [C10U G21A C23U G40C] was 0.01. In the case of GGCAGAGCUUAACACAGCGUCCCCAAGUGGCUGUGGCUAGACUGCC [C10U G21C G22C A24C], the self-cleavage amounted to 0.03.
